From the supplement of paper PMC10126150
Values marked as one replicate rest on one cluster of the flow cell; about a third of the high ones do not repeat.

Test system: ATP
Assay: switch fluorescence ratio, 500 uM ATP over buffer (Cy3 cluster intensity, sum of 5 cycles each) (fold (ratio)); higher = stronger signal-on switching upon ATP binding; sequences stand for … in TCGTCGGCAGCGTCAGATGTGTATAAGAGACAGTTTTTTTTTTTTTTTTTTTTTTTTT…TC
Details: aptamer strand: ATP DNA aptamer (quencher-CACCTGGGGGAGTATTGCGGAGGAAGG + anchor), 100 nM annealed; ATP concentration: 500 uM; one replicate
Method in brief: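 Clusters carrying Cy3-labelled switching strands on a modified Illumina MiSeq flow-cell were annealed to 100 nM quencher-labelled ATP aptamer and imaged in selection buffer. They were imaged again after 15 min with 500 uM ATP at 22 °C, over five buffer/ATP cycles with NaOH stripping and re-annealing in between. For each cluster, the fluorescence ratio is the summed Cy3 intensity of the target cycles divided by that of the buffer cycles, averaged per switch-domain sequence. Clusters outside 100-1000 RFU were left out.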
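Note: ATP exposure 15 min at 22 °C before imaging.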

Sequence	switch fluorescence ratio
CAATAGGATT	0.948
CCAGCCAATT	1.23
AACTTAAGTT	0.958
TCTGATGC	1.26
ATAACGGCAC	2.06
ACAGATCACT	1
TCTGTTTGT	1.03
GACAACATAC	3.23
GAAAATTGCT	1.01
TGCCTTCGGT	1
TTAAGTTATG	1.01
ATTTATTTGA	0.996
AATGTGAGT	0.993
AAGTTAGATG	0.995
GAATGCTTAC	1.82
GGTAGAAGCC	0.977
CGATAGGGAC	1.03
TAGACGTAGT	1.04
CAAGTCTACT	0.962
ATTGCAGTTC	1.05
GATTCTAAGT	0.994
TTATTGTCC	1.03
TAAGAGAGTT	1.02
TCTATGTT	0.992
TATCGGGTAG	1
TAGTTTCAAT	0.982

Sequence	switch fluorescence ratio
GGGACTTACG	1.09
CCGTTGATTG	0.997
TGTTAATGCC	1.1
CCTAATGCGT	1.08
CCTACTATTC	1.2
TGAGGGGA	1.03
TCATGATTGT	0.99
AAGGGCACGG	1.01
CACAAGTAAC	1.12
AATATCCGAT	1.02
CACACTGGCT	1
GCGGTGTAGT	1.03
TGGAAGGGCG	0.961
TGACGATT	0.964
GGAACCAAAC	1.05
ACCGCGGAA	1.07
TTCAAAGGAA	0.975
TGCCAGATGT	1.02
AATAATTTCA	1.02
AGCTGTCTCC	1.24
AATAAGGGAG	0.963
AACGGGTGTT	1.01
GCTATTCTTC	0.967
CCAAACACTG	0.997
GCACTCTATA	1.04
TAGGCGATCT	1

Sequence	switch fluorescence ratio
TTAGTCAGAG	1.04
GAAAACATTC	1.08
ATAACCAATG	1
GGATGCTCTC	1
GAAGTTTTAA	0.97
TGGACAGGGG	1.06
CTCAATGTG	1
GGGGCTAGAA	1.01
CTATGTTGTG	0.981
ACCTTAAAGC	1.07
GGCTTAAGTC	0.969
ATCGTATGAG	0.964
AAAGAGCGTT	1.04
ATGGTTCGC	0.985
AAAATTGGCA	1.02
ACGGTGACTC	1.16
TCGAAATCCA	1.03
CAGCCAAGCG	1.09
TGAACTGCAC	1.61
ACGATTCCTC	1.18
CAAGTTCGTA	0.979
GGGCCATGCG	0.995
CCTGATACGA	1.42
TTGACAGGTG	1.29
CTAGTCGGAA	1.03
TTAGCATCGG	0.969

Sequence	switch fluorescence ratio
GGCAGATCCC	1.01
CATGAAGTCT	1.04
CTCGAAGTCT	0.976
CTTTACGTTT	1.02
ATCGTATGTG	1.12
ACAATCTTCT	1.05
ACGGCCGCTT	1.11
CTGCAACATA	1.29
GGCTTCGTAG	1.01
TACGACTTCT	0.97
GCCGTCGGTA	0.985
TCAACCTGTG	1.06
GGAATGCTGT	0.993
GAAGATGAGA	0.922
CAGACACTGT	0.998
GCTCACGGGC	1.09
TACTGAGCCC	1.03
GAAGGGGGT	0.983
CCGCACAGGT	3.67
ACATAAAAAG	1.07
ACAGACCTTG	1.05
TCCAAATAGG	0.974
AGCGTTCACA	0.966
TATAGCTCTA	1.04
AATGTACGGT	1.08
AAAGGCTAGT	0.991

Sequence	switch fluorescence ratio
CAATCGAGGA	1.01
ACCGGACTGC	1.24
TGGAGATCGC	1.04
TAGCTTTGG	0.978
CGATGAAGTT	0.965
ATCCCAGAG	1.12
TTGTTATCGC	1.05
AGGGGGCCTC	1.04
TTCGTGAGGG	1.01
AAGGTATTGT	0.995
GTGCGTTGGT	0.987
ATGAATAAGA	0.963
GGAGCACTT	1.14
GCTAGCTATT	1.07
ACACCTTTAG	1.03
GGCAATTGGC	0.962
AAGACAACCT	2.13
CTTCTCTATT	0.967
ACACCAGGAC	1.25
CTTCTGGGTC	0.993
GCATAAGAAC	1.03
GCGTGCTGTT	0.986
CGGCAGTTGG	1.04
ATGGTTAAGC	1.06
AAGCACTTAA	1.1
AGCGGTAGC	0.942

Sequence	switch fluorescence ratio
TGGGAGCAAG	1.03
TCTGATGAGG	0.973
AATACGTATT	0.996
GAATTTGGCC	1.01
ATGTGTGAGT	0.966
TTTTAATAG	0.985
GCAGCTTCTC	1.23
TGTCTGACTG	0.92
GATTTGTTCG	0.963
TAAGGTTTTA	0.988
GCGGTTATCG	1.02
CATTGCTGGG	0.99
CGGGGTCTAG	1.01
GTATGTAGCC	1.03
TTTGGCAGGA	1.02
ACAGGTCGG	1.17
CAAGTGCGG	1.01
ACTAAGGGA	1.03
ATCTATTGTC	0.993
AAGGAACGA	1.03
GGTCATTTTA	0.979
AAGAGAATTT	0.975
ATGCTTCATG	0.974
TTTGCAAGAC	3.88
GAAAGATTGT	0.964
ATCATCTGTT	1.02

Sequence	switch fluorescence ratio
TATATTTTCG	1.01
GTGTCGCGAT	0.966
TCCATGAGA	1
AGGCTTGAGC	1.07
AATCCTAATT	0.986
GTAATACAGT	1.02
TTGCTCCGGA	1.75
AACACGGGAG	0.999
ATTAGGAAGC	1.01
ACGACTTTTC	1.09
TTGAAGGATT	0.972
GCAGGTTAGT	0.978
CGATAGTGAT	0.977
CCACCTCAAC	2.39
CAACTTGGTA	0.981
CACCGAAAAT	1.02
ATATTGATTG	0.963
CATACTCGTT	0.975
TTTTCCAATT	1.1
GGGGTCGCCG	1
GTAAATGTAA	0.972
TATCAGGCTA	1
AAACTAAACC	1.1
AAGAAGATAG	1.03
GCCGACAGGT	0.961
AGCTAGACAT	0.971

Sequence	switch fluorescence ratio
GAAAATGACT	1.07
ATGACGGGAT	1.02
TACAACTTCT	0.952
GCGGTAGGAG	0.986
ATATGTCCAA	1.01
AAATGCAGTT	1.02
CACTGATCAC	1.07
GTCACAGTC	0.956
ATTTTTCGCA	0.966
TCTATCGGTT	1
AGGCAAGTCA	0.939
CAGCGATATT	1.71
AGAGGTCTAT	0.99
AATTCGATCT	1
GATCCAGTGC	1.29
CAGCGGGCG	1.01
AAACGGCGTA	0.963
ATTGATGGCT	1.02
TGATCTAGAA	1.02
